Where “and” joins values, the source holds several entries; their conditions need not be identical. Identical values can stand only once. The campaign covered roughly 50,000 compounds. About 800 (1.6%) showed an effect of 50% or more. Some of the results follow.

The test addresses Bcl-2-like protein 10 (Homo sapiens) (UniProt Q9HD36). Kind of test: TR3 peptide-Bcl-B binding displacers, biochemical primary FP assay, phenotype converters (AID 1240).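 Further: 0% = Bcl-B with tracer peptide and DMSO and 100% = tracer peptide lacking Bcl-B.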 The following applies: GST-Bcl-B / FITC-TR3 peptide fluorescence polarization; stronger effect = higher value; compound at 3.75 mg/L. Background: In fluorescence polarisation assays a small probe gives low polarisation when free and higher when bound to something large.
UniProt Q9HD36, sequence (Q9HD36 whole entry, looked up): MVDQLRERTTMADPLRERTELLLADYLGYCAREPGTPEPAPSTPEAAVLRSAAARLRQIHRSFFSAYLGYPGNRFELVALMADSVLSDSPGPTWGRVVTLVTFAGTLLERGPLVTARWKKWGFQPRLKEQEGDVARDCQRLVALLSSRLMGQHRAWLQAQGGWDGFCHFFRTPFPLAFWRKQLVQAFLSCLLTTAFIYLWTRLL
As for `CCCCOC(=O)c1ccc(NC(=O)c2cc(Cl)ccc2[N+](=O)[O-])cc1`, the displacement amounted to 16.3%.

Consider `O=C(O)CC/C(=N\NS(=O)(=O)c1ccccc1)c1ccccc1`, for which the displacement was found to be 11.7%.

In the case of `Cc1cccc(N2C(=O)NC(=O)/C(=C/c3ccc(N(C)C)c(Br)c3)C2=O)c1`, the displacement was -10.2%.

Regarding `CN1CCN(CCN2CCn3c2nc2ccccc23)CC1`, the displacement was -3.3%.

For the compound `O=[N+]([O-])c1ccc(-c2nc(-c3ccc(C(F)(F)F)cc3)no2)cc1`, the displacement is 39.3%.

On to `CCSc1nnc(NC(=O)c2cccc(OC)c2)s1`, for which the displacement is 0.5%.

In the case of `COc1cc(NC(=O)c2ccc(-c3ccc(Br)cc3)o2)ccc1NC(=O)c1ccco1`, the displacement turned out to be 158%.

As for `O=C(CSc1nc2ccccc2[nH]1)OCN1C(=O)c2ccccc2C1=O`, the displacement was -11.1%.

`CCOc1ccc(N2C(=O)C(O)=C(C(=O)/C=C/c3ccccc3)C2c2ccccc2[N+](=O)[O-])cc1` (stereo not drawn): the displacement came out at 0.7%.

In the case of `NC(=S)N/N=C(/Cc1ccccc1)c1ccc(-c2ccccc2)cc1`, the displacement turned out to be 6.3%.

With `COc1ccc(OC)c(C2C(C(=O)OCCc3ccccc3)=C(C)NC3=C2C(=O)CCC3)c1` (stereo not drawn), the displacement is -4.8%.

As for `CN1C(=O)/C(=C\c2ccc([N+](=O)[O-])o2)SC1=S`, the displacement stood at 24.9%.

In the case of `COC(=O)c1cc(NC(=O)c2sc3cc(C)ccc3c2Cl)cc(C(=O)OC)c1`, the displacement amounted to 1.1%.

On to `Cc1cccc(C)c1OCCCN1CCC(C)CC1`, for which the displacement was -13.6%.

In the case of `O=C(O)CCC(=O)NNC(=O)c1ccncc1`, the displacement amounted to 2.5%.

As to `O=C(N/N=C/c1cccc(Cl)c1)C(O)(c1ccccc1)c1ccccc1`, the displacement was -0.3%.

As for `Nc1ccc(Cl)c(-c2nc3ccccc3s2)c1`, the displacement turned out to be 4.5%.

For `CCOC(=O)c1sc(NC(=O)c2ccc(OC)cc2)c(C(=O)OCC)c1C`, the displacement is 4.5%.

As to `Cc1ccc(C(NC(N)=O)c2ccccc2C)cc1` (stereo not drawn), the displacement worked out at 14%.

For `COc1ccc(/C=N/Nc2nnc(-c3ccccc3)c(-c3ccccc3)n2)cc1`, the displacement stood at 3.3%.

Take `O=C1NC(c2ccccc2)=C(c2ccc3ccccc3n2)C(c2ccc([N+](=O)[O-])cc2)N1` (stereo not drawn): the displacement amounted to 11.2%.

Take `Cc1ccc(Cn2c(=O)c3c(ncn3C)n(C)c2=O)cc1`: the displacement amounted to 6.8%.

Regarding `Cc1cccc(N2CCN(C(=O)c3ccc(C(C)(C)C)cc3)CC2)c1C`, the displacement is -12.5%.

`CCOc1ccc(N2C(=O)/C(=C/c3ccc(I)o3)C(=O)NC2=S)cc1`: the displacement was determined as 7.3%.

For `O=c1oc2ccccc2nc1/C=C(\O)c1cccs1`, the displacement stood at 61.3%.

Turning to `COc1cc(C(C2C(=O)CC(C)(C)CC2=O)C2C(=O)CC(C)(C)CC2=O)ccc1O`, the displacement was -9.2%.

With `CC(=O)Nc1ccc(Nc2nc3ccccc3nc2NS(=O)(=O)c2ccc(Cl)cc2)cc1`, the displacement is -12.5%.

For the compound `C/C(=N\NC(=O)C1CC1)c1ccccn1`, the displacement was -8.1%.

`COc1ccccc1NC(=O)c1ccc(CN2CCc3ccccc3C2)cc1`: the displacement was -4.8%.

Take `CCn1nc(C)c(Cc2c(C)nn(CC)c2C)c1C`: the displacement was -11.9%.

For `CCOc1ccc(C(=O)Nc2ccc3c4c(cccc24)CC3)cc1[N+](=O)[O-]`, the displacement amounted to 14.7%.

As to `O=C(Nc1cccc(NC(=O)c2ccccc2Br)c1)c1cccc(Br)c1`, the displacement is -34.2%.

As to `CCOc1ccc(C(O)c2nccn2CC)cc1` (stereo not drawn), the displacement is -1.8%.

`Cc1cccc(C(=O)Nc2sc3c(c2C(=O)N2CCCCC2)CCCCC3)c1`: the displacement is -7.4%.

For `COc1cc(C2NC(=S)NC(C)=C2C(=O)Nc2ccccc2)ccc1O` (stereo not drawn), the displacement was -9.6%.

As to `CC(=O)Nc1ccc(C(=O)N2CCC(Cc3ccccc3)CC2)cc1`, the displacement was -1.3%.

Regarding `COc1ccc(NC(=O)CCN2C(=O)/C(=C/c3cccs3)SC2=S)cc1`, the displacement stood at 82.8%.

For the compound `Cc1ccc(C(=O)Oc2ccc(Br)cc2C(=S)N2CCOCC2)cc1`, the displacement stood at 8.1%.

For the compound `Cc1ccc(N2CCN(/N=C\c3ccccc3F)CC2)cc1`, the displacement stood at 3.9%.

In the case of `COc1ccc(C(=O)N/N=C/c2cc(OC)c(O)c([N+](=O)[O-])c2)cc1OC`, the displacement was 3.9%.

For the compound `CCOC(=O)c1c(NC(=O)COc2cc(Cl)ccc2Cl)sc(C)c1C`, the displacement is -8%.

As for `Cc1cc(Cl)ccc1OCC(=O)Nc1ccc(Cl)cn1`, the displacement was 22%.

Consider `Cc1ccc(C)c(S(=O)(=O)/N=C2\C=CC(=O)c3ccccc32)c1`, for which the displacement came out at 12.4%.

As for `O=C(CN1CCN(CCN2C(=O)c3cccc4cccc(c34)C2=O)CC1)c1ccc(F)cc1`, the displacement is 5.3% and 0%.

Take `O=C(CSc1nc2ccc(N3C(=O)c4ccccc4C3=O)cc2s1)NCc1ccco1`: the displacement is -27.7%.

On to `CCOc1ccc(C(=O)Nc2ccc3oc(-c4cccc(Cl)c4Cl)nc3c2)cc1[N+](=O)[O-]`, for which the displacement was -9.7%.

As for `NCC1NCCc2ccccc21` (stereo not drawn), the displacement is -4%.

For the compound `Cc1cc(/C=N/Nc2ccc([N+](=O)[O-])cn2)c(C)n1-c1ccc(F)cc1`, the displacement was -12%.

For the compound `CC1(C(=O)O)CCC(C(=O)Nc2ccccc2O)C1(C)C` (stereo not drawn), the displacement was -15.5%.

For the compound `COc1ccc(/C=C/C(=O)Nc2ccc(C(C)=O)cc2)cc1`, the displacement was 4.5%.

Regarding `CCCCCCOc1ccc(N2C(=O)CC(N3CCC(C)CC3)C2=O)cc1` (stereo not drawn), the displacement is -8.9%.

For the compound `COc1ccc(C2NC(=S)NC(C)=C2C(=O)Nc2ccccc2Cl)cc1` (stereo not drawn), the displacement was -15.9%.

With `CCCc1[nH]n(-c2ccc([N+](=O)[O-])cc2)c(=O)c1C=NCCc1ccc(OC)c(OC)c1`, the displacement is -8%.

For the compound `CCCOc1ccc(N2C(=O)CC(NCc3ccc(C(=O)O)cc3)C2=O)cc1` (stereo not drawn), the displacement is -24%.

Regarding `O=C(NNC(=O)c1ccc(S(=O)(=O)c2ccccc2)cc1)c1ccc(Br)cc1`, the displacement is -6.6%.

As to `O=C(Nc1sc2c(c1C(=O)Nc1cccc3ccccc13)CCC2)c1ccccc1Br`, the displacement is -8%.

For the compound `Cc1ccc(OCc2nc(-c3ccncc3)no2)c(Br)c1`, the displacement came to 3.4%.

For the compound `O=S(=O)(Cc1ccccc1)N1CCN(C/C=C/c2ccccc2)CC1`, the displacement was found to be 10.4%.

As to `CC1(C)CC(=O)C2=C(C1)Nc1ccccc1NC2c1coc2c(Cl)cc(Cl)cc2c1=O` (stereo not drawn), the displacement was 5.4%.

Turning to `Fc1ccccc1-c1nc(-c2ccc(Br)cc2)no1`, the displacement was 4.3%.

Consider `O=C(N/N=C\c1cc(Br)c(Br)o1)c1cncc(Br)c1`, for which the displacement came out at 1.8%.

Turning to `CCc1ccc(-c2nn(-c3cc(N4CCN(C)CC4)ccc3[N+](=O)[O-])c(=O)c3ccccc23)cc1`, the displacement was 7.8%.

As for `COc1ccc(/C(N)=N/OC(=O)COc2ccccc2)cc1OC`, the displacement was 7.1%.

Consider `COc1ccc(CCN(C(C)=O)C2CC(=O)N(c3ccccc3)C2=O)cc1` (stereo not drawn), for which the displacement is -6.8%.

For the compound `NC(=O)C1CCN(C2CC(=O)N(c3ccccc3)C2=O)CC1` (stereo not drawn), the displacement was -1%.

With `COc1ccc(NC(=O)c2ccc(C(=O)O)cc2C(=O)O)c(OC)c1`, the displacement turned out to be 12.6%.

For `O=C(c1ccc(N2CCN(C(=O)c3ccc(F)cc3F)CC2)cc1)c1cccc(F)c1`, the displacement was found to be 72.1%.

Regarding `CCOc1ccc(S(=O)(=O)N(CC(=O)N(CC)CC)c2ccc(C)cc2)cc1`, the displacement worked out at 9.5%.

For `O=C(OCCC1(c2ccccc2)C(=O)c2ccccc2C1=O)c1ccc(Cl)cc1`, the displacement was 10.9%.

For the compound `CS(=O)(=O)N1CCN(C(=O)c2ccccc2F)CC1`, the displacement came to 7.3%.

In the case of `O=C1Nc2ccccc2C12NN=C(c1ccccc1O)S2` (stereo not drawn), the displacement was -6.1%.

On to `CCOC(=O)C1=C(C)NC(=S)NC1c1ccc(OCc2ccccc2)cc1` (stereo not drawn), for which the displacement was found to be 5.4%.

On to `Cc1cc([N+](=O)[O-])ccc1NC(=S)NC(=O)c1ccc(Cl)cc1`, for which the displacement was -4.6%.

For the compound `Cn1c(-n2c(CCCN3C(=O)c4ccccc4C3=O)nc3ccccc3c2=O)nc2ccccc21`, the displacement was found to be 35.4%.

In the case of `Clc1ccc(N2CCN(N=Cc3c(Cl)cccc3Cl)CC2)cc1`, the displacement worked out at 8.5%.

Take `CCCN/N=C/c1c(C)[nH]n(-c2ccccc2)c1=O`: the displacement was -10.5%.

Consider `CCc1ccc(-c2cc(C(=O)N3CCN(c4ccc(F)cc4)CC3)c3ccccc3n2)cc1`, for which the displacement was -7.6%.

Regarding `CC1CCN(CCOCCOc2ccc(Br)cc2)CC1`, the displacement was 4.2%.

On to `CCCc1ccc(C(=O)O/N=C(\N)c2ccccn2)cc1`, for which the displacement was 11.6%.

Consider `Cc1no[n+]([O-])c1COc1cccc(/C=C2\N=C(c3ccccc3)OC2=O)c1`, for which the displacement worked out at 13.2%.

In the case of `COc1cc(N/N=C/c2cc(Br)ccc2O)ncn1`, the displacement is -14.2%.

Regarding `C/C(=N\N=C1\NC(=O)C(CC(=O)Nc2ccccc2)S1)c1ccc([N+](=O)[O-])cc1` (stereo not drawn), the displacement was determined as 12.8%.

Consider `CCCC(C)NC(=O)Cc1ccccc1[N+](=O)[O-]` (stereo not drawn), for which the displacement stood at 11.9%.

Turning to `COC(=O)c1cc(-c2ccc(Br)cc2)nc2ccccc12`, the displacement is 0%.

For the compound `O=[N+]([O-])c1cccc2c1NC(c1ccccc1F)C1CC=CC21` (stereo not drawn), the displacement came to 45.6%.

As for `Cc1ccc(COc2ccc3c(c2)oc(=O)c2ccccc23)cc1`, the displacement is 8.3%.

Turning to `O=C1CCCN1Cc1ncnn1-c1ccccc1`, the displacement stood at 10.5%.

With `CCCN1C(=O)C2(c3ccccc31)N1CC3(C)CN2CC(C)(C1)C3=O` (stereo not drawn), the displacement is -6.2%.

For the compound `COc1cccc(NC(=O)C(=O)N/N=C/c2ccc3c(c2)OCO3)c1`, the displacement was determined as 6.5%.

For the compound `CCOc1ccc(/C=C(/C#N)c2nc(-c3ccc(Br)cc3)cs2)c(OCC)c1`, the displacement worked out at 38.9%.

On to `COc1cc(NC(=O)c2oc3ccc(Cl)cc3c2C)ccc1NC(=O)c1ccco1`, for which the displacement was -1.9%.

With `COc1ccc(CCNC(=O)/C=C/c2ccc([N+](=O)[O-])cc2)cc1`, the displacement is -7.2%.

Consider `Cn1cccc1CN1CCN(C(=O)c2ccc([N+](=O)[O-])cc2)CC1`, for which the displacement was -4.6%.

Take `Clc1ccc(-n2ncnc2-c2cccc(Br)c2)cc1`: the displacement was -7.3%.

Regarding `O=C(CNc1cccc(Cl)c1)c1ccc([N+](=O)[O-])cc1`, the displacement was 11.4%.

In the case of `O=C1CC(c2ccccc2)CC(O)=C1C=NCCN1CCNCC1` (stereo not drawn), the displacement is -27.5%.

As to `CCOC(=O)c1c(NC(=O)c2cccc(Cl)c2)sc(C(=O)Nc2ccccc2OCC)c1C`, the displacement stood at 9%.

As to `CC1=C(C(=O)OCc2ccccc2)C(c2ccccc2Cl)C2=C(CCCC2=O)N1` (stereo not drawn), the displacement is 6%.

In the case of `CC(C)(C)C(=O)Nc1ccc(NC(=O)C(C)(C)C)c(Cl)c1`, the displacement is -1.7%.

With `CC1(C)Cc2c(sc(NC(=S)NC(=O)c3ccccc3)c2C(=O)O)CO1`, the displacement was -11.6%.

Regarding `Cc1ccc(C(=O)NCCCn2ccnc2)o1`, the displacement is -2.5%.

Regarding `CCOc1c(Br)cc(Br)cc1/C=C1\SC(=S)NC1=O`, the displacement was determined as 7.7%.

`CN(C)c1cccc(NC(=O)c2ccc(C(C)(C)C)cc2)c1`: the displacement is -2.3%.

As for `O=[N+]([O-])c1ccccc1OCC(O)Cn1cnc2ccccc21` (stereo not drawn), the displacement turned out to be 2.8%.

In the case of `O=C1NC(=O)C(=Cc2cc(Br)ccc2OCc2ccccc2F)C(=O)N1`, the displacement amounted to 11.7%.

Turning to `CCOC(=O)C1=C(O)/C(=C/c2ccccc2)SC1=Nc1ccccc1`, the displacement amounted to 0.7%.

In the case of `O=C(NCCNc1ccccc1[N+](=O)[O-])c1ccccc1F`, the displacement is -3.6%.

In the case of `C=C1c2cc(OC)ccc2NC(=O)N1c1ccccc1`, the displacement was determined as 0.4%.

The values are drawn from PubChem BioAssay AID1240 (Sanford-Burnham Center for Chemical Genomics, 2008).
